In PubChem BioAssay AID200 (DTP/NCI, 2004):
Inconclusive results and toxic doses are left out. Some entries of the source have several records that differ or are many. They are shown here; other results are not. There may be further records. Values that stand side by side repeat one measurement (runs, samples, wells, individuals or studies).

System: B6C3F1 mice, B16 melanoma ip, median survival T/C
Assay: NCI In Vivo Anticancer Drug Screen. Data for tumor model B16 Melanoma (intraperitoneal) in B6C3F1 mice
Conditions: endpoint: median survival time, higher = longer survival
Description: The antitumor activity of compounds was measured in mice bearing transplantable tumors. Survival or tumor size were measured and the results are expressed as the measurement made in the treated group (T) divided by the measurement made in the vehicle treated control group (C). The tumor model used in this assay is B16 Melanoma (intraperitoneal) in B6C3F1 mice

[1] = dose: 0.75 mg/kg/injection, schedule: Q01DX009 (ip), vehicle: saline
[2] = dose: 6.25 mg/kg/injection, schedule: Q01DX009 (ip), vehicle: saline with Tween-80
[3] = dose: 100.0 mg/kg/injection, schedule: Q01DX009 (ip), vehicle: saline
[4] = dose: 50.0 mg/kg/injection, schedule: Q01DX009 (ip), vehicle: Klucel (hydroxypropylcellulose) (HPC)

For `COc1cc2c(c(OC)c1OC)-c1ccc(OC)c(=O)cc1[C@@H](NC(C)=O)CC2`, the T/C [1] was 106 % of control and 168 % of control.
In the case of `CN=S(=O)(OCCCCCOS(=O)(=NC)c1ccccc1)c1ccccc1` (stereo unspecified), the T/C (dose: 3.12 mg/kg/injection, schedule: Q01DX009 (ip), vehicle: saline with Tween-80) is reported as 104 % of control and 154 % of control and the T/C [2] is reported as 100 % of control and 172 % of control.
For `O=C(CCl)N1c2ccccc2Oc2cc3ccccc3cc21`, the T/C [3] was 113 % of control and 153 % of control.
For `COC1=C2C[C@@H](C)C[C@@H](OC)[C@@H](O)[C@H](C)/C=C(\C)[C@@H](OC(N)=O)[C@H](OC)/C=C\C=C(/C)C(=O)NC(=CC1=O)C2=O`, the T/C (dose: 4.0 mg/kg/injection, schedule: Q01DX009 (ip), vehicle: saline with Tween-80) was 118 % of control and 157 % of control.
`COc1cccc2c1C(=O)c1c(O)c3c(c(O)c1C2=O)C[C@@](O)(C(=O)CO)C[C@@H]3OC1CC(N(C)C)C(O)C(C)O1` (stereo partly specified) was tested, and the T/C (dose: 0.25 mg/kg/injection, schedule: Q01DX009 (ip), vehicle: saline) was 117 % of control and 153 % of control.
For `C#CCNC1=C(C)C(=O)C2=C(C1=O)[C@H](COC(N)=O)[C@]1(OC)[C@@H]3N[C@@H]3CN21`, the T/C (dose: 3.0 mg/kg/injection, schedule: Q01DX009 (ip), vehicle: distilled water + Tween-80) was 100 % of control, 159 % of control, 178 % of control and the T/C (dose: 6.0 mg/kg/injection, schedule: Q01DX009 (ip), vehicle: distilled water + Tween-80) was 94 % of control, 170 % of control, 303 % of control.
For `O=NN(CCCl)C(=O)Oc1cc(Cl)c(Cl)cc1Cl`, the T/C [4] was 111 % of control and 165 % of control.
In the case of `CCN(CC)CC(=O)O[C@]1(CC)C(=O)OCc2c1cc1n(c2=O)Cc2cc3ccccc3nc2-1`, the T/C (dose: 4.0 mg/kg/injection, schedule: Q01DX009 (ip), vehicle: water) is reported as 124 % of control and 150 % of control.
`COC(=O)[C@@]12OC[C@]34[C@H]([C@@H](O)[C@@H]1O)[C@@]1(C)CC(=O)C(O)=C(C)[C@@H]1C[C@H]3OC(=O)[C@H](OC(=O)/C=C(\C)C(C)CO)[C@@H]24` (stereo partly specified) was tested, and the T/C (dose: 0.5 mg/kg/injection, schedule: Q01DX009 (ip), vehicle: saline + alcohol) was 111 % of control, 121 % of control, 155 % of control.
For `CNC(=O)OCc1c(COC(=O)NC)c(-c2ccc(F)cc2)n2c1CCC2`, the T/C (dose: 12.5 mg/kg/injection, schedule: Q01DX009 (ip), vehicle: Klucel (hydroxypropylcellulose) (HPC)) was 119 % of control and 154 % of control.
`O=C1N(CC2CO2)CCN1CC1CO1` (stereo unspecified) was tested, and the T/C [3] was 116 % of control and 179 % of control.
`C1CN(P2(N3CC3)=NP(N3CC3)(N3CC3)=NP(N3CC3)(N3CC3)=N2)CCO1` (stereo unspecified) was tested, and the T/C (dose: 32.0 mg/kg/injection, schedule: Q02DX009 (ip), vehicle: saline) was 103 % of control and 185 % of control.
For `C/C=C/c1cc2n(c1)C(=O)c1cc(OC3OC(C)C(NC)C(C)(O)C3O)c(C)c(O)c1NC2O` (stereo unspecified), the T/C (dose: 0.5 micrograms/kg/injection, schedule: Q01DX009 (ip), vehicle: saline) was 104 % of control and 156 % of control.
For `O=S1(=O)CS(=O)(=O)OCCO1`, the T/C (dose: 25.0 mg/kg/injection, schedule: Q01DX009 (ip), vehicle: Klucel (hydroxypropylcellulose) (HPC)) was 123 % of control and 179 % of control.
`COC(=Nc1ccccc1)SSC(C)C` was tested, and the T/C [2] was 98 % of control and 160 % of control.
`O=C1C=CC(=O)O1` (tested in a mixture with another compound) was tested, and the T/C (dose: 100.0 mg/kg/injection, schedule: Q04DX003 (ip), vehicle: saline) was 116 % of control and 172 % of control and the T/C (dose: 200.0 mg/kg/injection, schedule: Q04DX003 (ip), vehicle: saline) was 122 % of control and 157 % of control.
`c1cc(OCC2CO2)ccc1OCC1CO1` (stereo unspecified) was tested, and the T/C (dose: 100.0 mg/kg/injection, schedule: Q01DX009 (ip), vehicle: Klucel (hydroxypropylcellulose) (HPC)) was 109 % of control and 158 % of control.
`CCC12C[N+]3([O-])CCc4c([nH]c5ccccc45)C(C(=O)OC)(c4cc5c(cc4OC)N(C)C4C(O)(C(=O)OC)C(OC(C)=O)C6(CC)C=CCN7CCC54C76)CC(C3)C1O2` (stereo unspecified) was tested, and the T/C (dose: 2.5 mg/kg/injection, schedule: Q01DX009 (ip), vehicle: water) was 101 % of control, 113 % of control, 189 % of control.
For `O=P1(N(CCCl)CCCl)NCCCO1` (stereo unspecified), the T/C (dose: 400.0 mg/kg/injection, schedule: Q01DX001 (ip), vehicle: saline) was 88 % of control and 198 % of control.
With `COC(=O)Nc1cn2cc(C(=O)c3cccs3)ccc2n1` the T/C [4] was 89 % of control and 167 % of control.
For `CC(C)NC(=O)OCc1c(COC(=O)NC(C)C)c(-c2ccc(Cl)c(Cl)c2)n2c1CCC2`, the T/C (dose: 80.0 mg/kg/injection, schedule: Q01DX009 (ip), vehicle: Klucel (hydroxypropylcellulose) (HPC)) was 106 % of control and 319 % of control.
For `COC(COC(=O)N1CCN(C=O)CC1)C1=C(N2CC2)C(=O)C(C)=C(N2CC2)C1=O` (stereo unspecified), the T/C [1] was 115 % of control and 162 % of control.
For `[Cl][Pt+2][Cl].[NH-]C1CCC1.[NH2-]`, the T/C (dose: 1.5 mg/kg/injection, schedule: Q01DX009 (ip), vehicle: saline) was 122 % of control and 171 % of control.
With `O=C1c2c(O)ccc(O)c2C(=O)c2c(NCCNCCO)ccc(NCCNCCO)c21` the T/C (dose: 4.5 mg/kg/injection, schedule: Q01DX001 (ip), vehicle: acid diluted with saline) was 120 % of control and 184 % of control.
For `COC(=O)C12OCC34C(CC5C(C)=CC(=O)C(O)C5(C)C3C(O)C1O)OC(=O)C(OC(=O)CC(C)C)C24` (stereo unspecified), the T/C (dose: 0.12 mg/kg/injection, schedule: Q01DX009 (ip), vehicle: saline + alcohol) was 119 % of control and 153 % of control.
With `O=C(O)c1cc(C(=O)O)c(C(=O)O)cc1C(=O)O.[NH2-].[NH2-].[NH2-].[NH2-].[Pt+2].[Pt+2]` the T/C (dose: 2.0 mg/kg/injection, schedule: Q01DX009 (ip), vehicle: water) was 124 % of control and 152 % of control.
For `COc1ccc(-c2c3c(cc4cc5c(cc24)OCO5)C(=O)OC3)cc1OC`, the T/C (dose: 48.0 mg/kg/injection, schedule: Q01DX009 (ip), vehicle: Klucel (hydroxypropylcellulose) (HPC)) was 99 % of control and 170 % of control.
With `COC12C(COC(N)=O)C3=C(C(=O)C(C)=C(N)C3=O)N1CC1C2N1C` (stereo unspecified) the T/C (dose: 4.0 mg/kg/injection, schedule: Q01DX009 (ip), vehicle: saline) was 95 % of control and 154 % of control.
`O=NN(CCCl)C(=O)NCCCl` was tested, and the T/C (dose: 24.0 mg/kg/injection, schedule: Q01DX001 (ip), vehicle: saline) was 107 % of control and 154 % of control.
For `Cn1cc(C2NC(=O)c3ccccc3N2)c2ccccc21` (stereo unspecified), the T/C (dose: 200.0 mg/kg/injection, schedule: Q01DX009 (ip), vehicle: Klucel (hydroxypropylcellulose) (HPC)) was 120 % of control and 162 % of control.
With `N#Cc1ccc(NN=O)nc1` the T/C (dose: 12.5 mg/kg/injection, schedule: Q01DX009 (ip), vehicle: water) was 118 % of control and 169 % of control and the T/C (dose: 25.0 mg/kg/injection, schedule: Q01DX009 (ip), vehicle: water) was 121 % of control and 157 % of control.
With `CS(=O)(=O)CS(=O)(=O)OCCF` the T/C (dose: 25.0 mg/kg/injection, schedule: Q01DX009 (ip), vehicle: saline) was 113 % of control, 156 % of control, 194 % of control.
`CCCCCCCCCCCCCCCC(=O)OCC1OC(n2ccc(N)nc2=O)C(O)C1O` (stereo unspecified) was tested, and the T/C (dose: 15.0 mg/kg/injection, schedule: Q01DX009 (ip), vehicle: saline with Tween-80) was 120 % of control and 158 % of control.
In the case of `CCNC(=O)OCc1c(COC(=O)NCC)c(-c2ccc(Cl)c(Cl)c2)n2c1CCC2`, the T/C [2] is reported as 121 % of control and 154 % of control.
`COC1CC(C)C(OC)C2=CC(=O)C=C(NC(=O)/C(C)=C/C=C\C(C)C(OC(N)=O)/C(C)=C\C(C)C1OC)C2=O` (stereo unspecified) was tested, and the T/C (dose: 1.25 mg/kg/injection, schedule: Q01DX009 (ip), vehicle: saline + alcohol) was 111 % of control and 154 % of control.
`COC1CC2C=C(C)/C=C/C=C/C(=O)NC(c3ccccc3)C/C=C/CCC(O)CC(=O)C2=C1O` (stereo unspecified) was tested, and the T/C (dose: 6.0 mg/kg/injection, schedule: Q01DX009 (ip), vehicle: Klucel (hydroxypropylcellulose) (HPC)) was 120 % of control and 155 % of control.
With `CC[C@]1(O)C[C@H]2CN(CCc3c([nH]c4ccccc34)[C@@](C(=O)OC)(c3cc4c(cc3OC)N(C=O)[C@H]3[C@@](O)(C(=O)OC)[C@H](OC(C)=O)[C@]5(CC)C=CCN6CC[C@]43[C@@H]65)C2)C1` the T/C (dose: 0.12 mg/kg/injection, schedule: Q01DX009 (ip), vehicle: water) was 90 % of control and 175 % of control and the T/C (dose: 0.25 mg/kg/injection, schedule: Q01DX009 (ip), vehicle: water) was 90 % of control and 171 % of control.
For `COc1cc(C2c3cc4c(cc3C(O)C(CO)C2CO)OCO4)cc(OC)c1OC` (stereo unspecified), the T/C (dose: 50.0 mg/kg/injection, schedule: Q01DX009 (ip), vehicle: saline with Tween-80) was 114 % of control and 155 % of control, the T/C (dose: 100.0 mg/kg/injection, schedule: Q01DX009 (ip), vehicle: saline with Tween-80) was 113 % of control, 151 % of control, 178 % of control and the T/C (dose: 200.0 mg/kg/injection, schedule: Q01DX009 (ip), vehicle: saline with Tween-80) was 124 % of control and 153 % of control.
In the case of `Oc1cc(O)cc(/C=C/c2ccc(O)c(O)c2)c1`, the T/C (dose: 25.0 mg/kg/injection, schedule: Q01DX009 (ip), vehicle: DMSO) is reported as 118 % of control and 153 % of control.
